This is an account of results in patent USRE50631E1, “ROR1 antibody immunoconjugates” (VelosBio Inc., priority 2017, dated 2025).

The subject of one data set is Mec-ROR. As to the kind of experiment: Cytotoxicity in vitro (CellTiter-Glo viability), Mec-ROR. As to conditions: read-out: EC50 (nM), cytotoxicity in vitro; Mec-ROR (CLL), 72 hours.
The subject of a further data set is Jeko-1. As to the kind of experiment: Cytotoxicity in vitro (CellTiter-Glo viability), Jeko-1. The format is cell-based, human. As to conditions: Jeko-1 (MCL), read-out: EC50 (nM), cytotoxicity in vitro. A general note: In ATP-based viability assays light output follows the ATP content of the culture.
In the next data set the target is T1, ROR1 on Jeko-1 cells (Homo sapiens, UniProt Q01973).
T1 construct: The Jeko-1 cell line, from mantle cell lymphoma, is a suspension cell line; host or cells: Jeko-1 (human mantle cell lymphoma)
The experiment in a line: Binding to ROR1-positive Jeko-1 cells (flow cytometry receptor binding assay). The conditions noted are these: 20 minutes on ice, PE secondary antibody. On the procedure:
(§1) The binding to tumor cells by antibodies Ab1 and 4A5, as well as ADC constructs derived from those antibodies (ADC-A and ADC-T), was evaluated. First, the binding of Ab1 to two ROR1-positive human tumor cell lines representing different cancer types was tested. The Jeko-1 cell line, from mantle cell lymphoma, is a suspension cell line, while the MDA-MB-231 cell line, from triple negative breast cancer, is an adherent cell line. The cell lines have different levels of ROR1 expression, with Jeko-1 cells displaying about 13507 cell surface copies and the MDA-MB-231 cells displaying about 21015 cell surface copies. The Jeko-1 (ATCC Cat. No. CRL-3006) and MDA-MB-231 (ATCC Cat. No. […]) cell lines were purchased from the American Type Culture Collection and were maintained according to the ATCC recommendations.
(§2) Jeko-1 cells (FIG. 2A) or MDA-MB-231 cells (FIG. 2B) were incubated with 0, 1, 10, 100, or 1000 ng/mL of Ab1 for 20 minutes on ice. After washing off unbound antibody, the cells were incubated with secondary anti-human IgG antibody labeled with phycoerythrin (PE) for an additional 20 minutes. The amount of PE fluorescence was measured using the BDFACS Verse analyzer and FlowJo V10 software. The PE signal for the highest concentration was used as the maximal binding signal to calculate the % maximal binding. EC50 was calculated using GraphPad Prism 7. […]

Another data set concerns L363. As to the kind of experiment: Cytotoxicity in vitro (CellTiter-Glo viability), L363. The format is cell-based, human. As to conditions: L363 (MM), 72 hours.
For another data set, the system named is Bx-PC3. As to the kind of experiment: Cytotoxicity in vitro (CellTiter-Glo viability), Bx-PC3. In kind it is cell-based, human. The conditions noted are these: Bx-PC3 (Pancreatic), 72 hours.
Another data set deals with OCI-Ly18. As to the kind of experiment: Cytotoxicity in vitro (CellTiter-Glo viability), OCI-Ly18. The conditions noted are these: OCI-Ly18 (DLBCL), 72 hours. The format is cell-based, human.
For another data set, the target named is T2, ROR1 on MDA-MB-231 cells (Homo sapiens, UniProt Q01973).
T2 construct: the MDA-MB-231 cell line, from triple negative breast cancer, is an adherent cell line; host or cells: MDA-MB-231 (human triple negative breast cancer)
The experiment in a line: Binding to ROR1-positive MDA-MB-231 cells (flow cytometry receptor binding assay). The conditions noted are these: 20 minutes on ice, PE secondary antibody. On the procedure: as §1, §2
In general terms: In flow cytometry, cells or beads pass a laser one at a time.

Several values for one entry are separate records, joined by “and”; a condition that tells them apart may be missing. Equal entries are not always repeated. Where two headings read alike, the source gives them in different places.

T1 sequence (Q01973 30-937): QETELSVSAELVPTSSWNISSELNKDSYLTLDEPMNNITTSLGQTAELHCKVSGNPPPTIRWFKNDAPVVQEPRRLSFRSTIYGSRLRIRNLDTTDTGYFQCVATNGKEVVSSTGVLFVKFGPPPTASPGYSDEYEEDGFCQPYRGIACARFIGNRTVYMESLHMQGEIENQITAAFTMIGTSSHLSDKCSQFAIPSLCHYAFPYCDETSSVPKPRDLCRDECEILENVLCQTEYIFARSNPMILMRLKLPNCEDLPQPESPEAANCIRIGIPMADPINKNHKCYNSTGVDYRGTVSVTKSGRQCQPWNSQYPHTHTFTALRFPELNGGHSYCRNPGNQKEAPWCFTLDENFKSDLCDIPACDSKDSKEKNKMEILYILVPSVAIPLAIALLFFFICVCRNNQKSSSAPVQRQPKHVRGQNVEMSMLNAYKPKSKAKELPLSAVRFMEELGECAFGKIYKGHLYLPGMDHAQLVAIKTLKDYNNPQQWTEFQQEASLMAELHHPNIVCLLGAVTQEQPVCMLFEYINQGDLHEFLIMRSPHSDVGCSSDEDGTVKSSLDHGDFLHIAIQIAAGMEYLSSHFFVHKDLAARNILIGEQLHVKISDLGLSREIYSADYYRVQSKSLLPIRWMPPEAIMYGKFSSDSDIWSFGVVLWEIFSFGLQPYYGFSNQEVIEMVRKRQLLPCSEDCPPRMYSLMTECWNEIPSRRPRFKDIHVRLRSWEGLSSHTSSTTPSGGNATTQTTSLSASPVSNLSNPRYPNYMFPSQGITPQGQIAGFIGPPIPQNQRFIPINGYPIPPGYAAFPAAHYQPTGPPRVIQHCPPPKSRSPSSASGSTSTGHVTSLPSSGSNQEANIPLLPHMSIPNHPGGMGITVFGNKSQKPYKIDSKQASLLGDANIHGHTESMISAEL
T2 sequence (Q01973 30-937): as above

B1: ADC-A: Ab1 conjugated via MAL (mc)-VC-PAB linker to MMAE (conjugate)
heavy: QVQLQESGPGLVKPSQTLSLTCTVSGYAFTAYNIHWVRQAPGQGLEWMGSFDPYDGGSSYNQKFKDRLTISKDTSKNQVVLTMTNMDPVDTATYYCARGWYYFDYWGHGTLVTVSS[skipping human IgG1 constant region]
light: DIVMTQTPLSLPVTPGEPASISCRASKSISKYLAWYQQKPGQAPRLLIYSGSTLQSGIPPRFSGSGYGTDFTLTINNIESEDAAYYFCQQHDESPYTFGEGTKVEIKRTVAAPSVFIFPPSDEQLKSGTASVVCLLNNFYPREAKVQWKVDNALQSGNSQESVTEQDSKDSTYSLSSTLTLSKADYEKHKVYACEVTHQGLSSPVTKSFNRGEC
As for B1, the EC50 in the data set with Mec-ROR is 208 nM; with Jeko-1 (72 hours) it was 187 nM; with Jeko-1 (96 hours (values marked *)), 22.4 nM and 40.4 nM; with L363, 244 nM; in the data set on Bx-PC3 it was 47.4 nM; in the data set with OCI-Ly18 it was 95 nM. In addition, the “EC50 of binding to cells” value in the data set with ROR1 on Jeko-1 cells is 0.017 µg/mL and 0.02157 µg/mL and 0.0221 µg/mL; with ROR1 on MDA-MB-231 cells, 0.0485 µg/mL.
